Test results published in US7816326B2, “Sulfur compounds as inhibitors of hepatitis C virus NS3 serine protease” (Schering Corporation, priority 2004, dated 2010).
Read-outs that look alike come from different tables or passages of the source.

Target: Recombinant heterodimeric HCV NS3/NS4A protease (strain 1a) (Hepatitis C virus genotype 1a, UniProt P27958)
Assay: Spectrophotometric assay for HCV protease inhibitory activity
Assay type: biochemical
Description: The present invention relates to novel HCV protease inhibitors. This utility can be manifested in their ability to inhibit the HCV NS2/NS4a serine protease.
Assay for HCV Protease Inhibitory Activity:
Spectrophotometric Assay: Spectrophotometric assay for the HCV serine protease can be performed on the inventive compounds by following the procedure described by R. Zhang et al, Analytical Biochemistry, 270 (1999) 268-275, the disclosure of which is incorporated herein by reference. The assay based on the proteolysis of chromogenic ester substrates is suitable for the continuous monitoring of HCV NS3 protease activity. The substrates are derived from the P side of the NS5A-NS5B junction sequence (Ac-DTEDVVX(Nva), where X=A or P) whose C-terminal carboxyl groups are esterified with one of four different chromophoric alcohols (3- or 4-nitrophenol, 7-hydroxy-4-methyl-coumarin, or 4-phenylazophenol). Illustrated below are the synthesis, characterization and application of these novel spectrophotometric ester substrates to high throughput screening and detailed kinetic evaluation of HCV NS3 protease inhibitors. Materials and Methods: Materials: Chemical reagents for assay related buffers are obtained from Sigma Chemical Company (St. Louis, Mo.). Reagents for peptide synthesis were from Aldrich Chemicals, Novabiochem (San Diego, Calif.), Applied Biosystems (Foster City, Calif.) and Perseptive Biosystems (Framingham, Mass.). Peptides are synthesized manually or on an automated ABI model 431A synthesizer (from Applied Biosystems). UV/VIS Spectrometer model LAMBDA 12 was from Perkin Elmer (Norwalk, Conn.) and 96-well UV plates were obtained from Corning (Corning, N.Y.). The prewarming block can be from USA Scientific (Ocala, Fla.) and the 96-well plate vortexer is from Labline Instruments (Melrose Park, Ill.). A Spectramax Plus microtiter plate reader with monochrometer is obtained from Molecular Devices (Sunnyvale, Calif.). […] Protein concentrations are determined by the Biorad dye method using recombinant HCV protease standards previously quantified by amino acid analysis. Prior to assay initiation, the enzyme storage buffer (50 mM sodium phosphate pH 8.0, 300 mM NaCl, 10% glycerol, 0.05% lauryl maltoside and 10 mM DTT) is exchanged for the assay buffer (25 mM MOPS pH 6.5, 300 mM NaCl, 10% glycerol, 0.05% lauryl maltoside, 5 μM EDTA and 5 μM DTT) utilizing a Biorad Bio-Spin P-6 prepacked column. Substrate Synthesis and Purification: The synthesis of the substrates is done as reported by R. Zhang et al, (ibid.) and is initiated by anchoring Fmoc-Nva-OH to 2-chlorotrityl chloride resin using a standard protocol (K. Barlos et al, Int. J. Pept. Protein Res., 37 (1991), 513-520). The peptides are subsequently assembled, using Fmoc chemistry, either manually or on an automatic ABI model 431 peptide synthesizer. […] The combined filtrate and DCM wash is evaporated azeotropically (or repeatedly extracted by aqueous Na2CO3 solution) to remove the acid used in cleavage. The DCM phase is dried over Na2SO4 and evaporated.
The ester substrates are assembled using standard acid-alcohol coupling procedures (K. Holmber et al, Acta Chem. Scand., B33 (1979) 410-412). Peptide fragments are dissolved in anhydrous pyridine (30-60 mg/ml) to which 10 molar equivalents of chromophore and a catalytic amount (0.1 eq.) of para-toluenesulfonic acid (pTSA) were added. Dicyclohexylcarbodiimide (DCC, 3 eq.) is added to initiate the coupling reactions. Product formation is monitored by HPLC and can be found to be complete following 12-72 hour reaction at room temperature. Pyridine solvent is evaporated under vacuum and further removed by azeotropic evaporation with toluene.

[1] = HCV serine protease inhibitory activity ranges, read-out: Ki* Range

Structure (SMILES): CCCC[C@H](NC(=O)[C@@H]1[C@@H]2[C@H](CN1C(=O)[C@@H](NC(=O)NC1(CS(=O)(=O)N(C)C)CCCCC1)C(C)(C)C)C2(C)C)C(=O)C(=O)NC1CC1 [compound 1200, 3-{2-[3-(1-Dimethylsulfamoylmethyl-cyclohexyl)-ureido]-3,3-dimethyl-butyryl}-6,6-dimethyl-3-aza-bicyclo[3.1.0]hexane-2-carboxylic acid(1-cyclopropylaminooxalyl-pentyl)-amide]
- Ki (HCV NS3/NS4A protease, chromogenic ester substrate, 30° C., pH 6.5, read-out: Ki*): 12 nM
- Ki [1]: < 75 nM

Structure (SMILES): CN(C)S(=O)(=O)CC1(NC(=O)N[C@H](C(=O)N2C[C@H]3[C@@H]([C@H]2C(=O)N[C@@H](CCC2CC2)C(=O)C(=O)NC2CC2)C3(C)C)C(C)(C)C)CCCCC1 [compound 1201]
- Ki [1]: < 75 nM

Structure (SMILES): CCC[C@H](NC(=O)[C@@H]1[C@@H]2[C@H](CN1C(=O)[C@@H](NC(=O)NC1([C@H]3CCN(C)S3(=O)=O)CCCCC1)C(C)(C)C)C2(C)C)C(=O)C(=O)NC1CC1 [compound 1202]
- Ki [1]: < 75 nM

Structure (SMILES): CN1CC[C@H](C2(NC(=O)N[C@H](C(=O)N3C[C@H]4[C@@H]([C@H]3C(=O)N[C@@H](CCC3CC3)C(=O)C(=O)NC3CC3)C4(C)C)C(C)(C)C)CCCCC2)S1(=O)=O [compound 1203]
- Ki [1]: < 75 nM

Structure (SMILES): CCCC[C@H](NC(=O)[C@@H]1[C@@H]2[C@H](CN1C(=O)[C@@H](NC(=O)NC1([C@H]3CCN(C)S3(=O)=O)CCCCC1)C(C)(C)C)C2(C)C)C(=O)C(=O)NC1CC1 [compound 1204]
- Ki [1]: < 75 nM

Structure (SMILES): CCCC[C@H](NC(=O)[C@@H]1[C@@H]2[C@H](CN1C(=O)[C@@H](NC(=O)NC1([C@@H]3CCN(C)S3(=O)=O)CCCCC1)C(C)(C)C)C2(C)C)C(=O)C(=O)NC1CC1 [compound 1205]
- Ki [1]: < 75 nM

Structure (SMILES): CCC[C@H](NC(=O)[C@@H]1[C@@H]2[C@H](CN1C(=O)[C@@H](NC(=O)NC1([C@@H]3CCN(C)S3(=O)=O)CCCCC1)C(C)(C)C)C2(C)C)C(=O)C(=O)NC1CC1 [compound 1206]
- Ki [1]: < 75 nM

Structure (SMILES): CCCC[C@H](NC(=O)[C@@H]1[C@@H]2[C@H](CN1C(=O)[C@@H](NC(=O)NC1([C@@H]3CCN(CC)S3(=O)=O)CCCCC1)C(C)(C)C)C2(C)C)C(=O)C(=O)NC1CC1 [compound 1207]
- Ki [1]: < 75 nM

Structure (SMILES): CCN1CC[C@@H](C2(NC(=O)N[C@H](C(=O)N3C[C@H]4[C@@H]([C@H]3C(=O)N[C@@H](CCC3CC3)C(=O)C(=O)NC3CC3)C4(C)C)C(C)(C)C)CCCCC2)S1(=O)=O [compound 1208]
- Ki [1]: < 75 nM

Structure (SMILES): CCC[C@H](NC(=O)[C@@H]1[C@@H]2[C@H](CN1C(=O)[C@@H](NC(=O)NC1([C@@H]3CCN(CC)S3(=O)=O)CCCCC1)C(C)(C)C)C2(C)C)C(=O)C(=O)NC1CC1 [compound 1209]
- Ki [1]: < 75 nM

Structure (SMILES): CCCC[C@H](NC(=O)[C@@H]1[C@@H]2[C@H](CN1C(=O)[C@@H](NC(=O)NC1(CS(=O)(=O)N3CCCC3)CCCCC1)C(C)(C)C)C2(C)C)C(=O)C(=O)NC1CC1 [compound 1210]
- Ki [1]: < 75 nM

Structure (SMILES): CC(C)(C)[C@H](NC(=O)NC1(CS(=O)(=O)N2CCCC2)CCCCC1)C(=O)N1C[C@H]2[C@@H]([C@H]1C(=O)N[C@@H](CCC1CC1)C(=O)C(=O)NC1CC1)C2(C)C [compound 1211]
- Ki [1]: < 75 nM

Structure (SMILES): CCC[C@H](NC(=O)[C@@H]1[C@@H]2[C@H](CN1C(=O)[C@@H](NC(=O)NC1(CS(=O)(=O)N3CCCC3)CCCCC1)C(C)(C)C)C2(C)C)C(=O)C(=O)NC1CC1 [compound 1212]
- Ki [1]: < 75 nM

Structure (SMILES): CCCC[C@H](NC(=O)[C@@H]1[C@@H]2[C@H](CN1C(=O)[C@@H](NC(=O)NC1([C@H]3CCN(C4CC4)S3(=O)=O)CCCCC1)C(C)(C)C)C2(C)C)C(=O)C(=O)NC1CC1 [compound 1213]
- Ki [1]: < 75 nM

Structure (SMILES): CCCC[C@H](NC(=O)[C@@H]1[C@@H]2[C@H](CN1C(=O)[C@@H](NC(=O)NC1([C@@H]3CCN(C4CC4)S3(=O)=O)CCCCC1)C(C)(C)C)C2(C)C)C(=O)C(=O)NC1CC1 [compound 1214]
- Ki [1]: < 75 nM

Structure (SMILES): CC(C)(C)[C@H](NC(=O)NC1([C@H]2CCN(C3CC3)S2(=O)=O)CCCCC1)C(=O)N1C[C@H]2[C@@H]([C@H]1C(=O)N[C@@H](CCC1CC1)C(=O)C(=O)NC1CC1)C2(C)C [compound 1215]
- Ki [1]: < 75 nM

Structure (SMILES): CC(C)(C)[C@H](NC(=O)NC1([C@@H]2CCN(C3CC3)S2(=O)=O)CCCCC1)C(=O)N1C[C@H]2[C@@H]([C@H]1C(=O)N[C@@H](CCC1CC1)C(=O)C(=O)NC1CC1)C2(C)C [compound 1216]
- Ki [1]: < 75 nM

Structure (SMILES): CCC[C@H](NC(=O)[C@@H]1[C@@H]2[C@H](CN1C(=O)[C@@H](NC(=O)NC1([C@@H]3CCN(C4CC4)S3(=O)=O)CCCCC1)C(C)(C)C)C2(C)C)C(=O)C(=O)NC1CC1 [compound 1217]
- Ki [1]: < 75 nM

Structure (SMILES): CCC[C@H](NC(=O)[C@@H]1[C@@H]2[C@H](CN1C(=O)[C@@H](NC(=O)NC1([C@H]3CCN(C4CC4)S3(=O)=O)CCCCC1)C(C)(C)C)C2(C)C)C(=O)C(=O)NC1CC1 [compound 1218]
- Ki [1]: < 75 nM

Structure (SMILES): CCCC[C@H](NC(=O)[C@@H]1[C@@H]2[C@H](CN1C(=O)[C@@H](NC(=O)NC1(CS(=O)(=O)N3CCCCC3)CCCCC1)C(C)(C)C)C2(C)C)C(=O)C(=O)NC1CC1 [compound 1219]
- Ki [1]: < 75 nM

Structure (SMILES): CC(C)(C)[C@H](NC(=O)NC1(CS(=O)(=O)N2CCCCC2)CCCCC1)C(=O)N1C[C@H]2[C@@H]([C@H]1C(=O)N[C@@H](CCC1CC1)C(=O)C(=O)NC1CC1)C2(C)C [compound 1220]
- Ki [1]: < 75 nM

Structure (SMILES): CCCC[C@H](NC(=O)[C@@H]1[C@@H]2[C@H](CN1C(=O)[C@@H](NC(=O)NC1(CS(=O)(=O)N(C)OC)CCCCC1)C(C)(C)C)C2(C)C)C(=O)C(=O)NC1CC1 [compound 1221]
- Ki [1]: < 75 nM

Structure (SMILES): CON(C)S(=O)(=O)CC1(NC(=O)N[C@H](C(=O)N2C[C@H]3[C@@H]([C@H]2C(=O)N[C@@H](CCC2CC2)C(=O)C(=O)NC2CC2)C3(C)C)C(C)(C)C)CCCCC1 [compound 1222]
- Ki [1]: < 75 nM

Structure (SMILES): C=CCNC(=O)C(=O)C(CC1CC1)NC(=O)[C@@H]1[C@@H]2[C@H](CN1C(=O)[C@@H](NC(=O)N[C@H]([C@H]1CCN(C)S1(=O)=O)C(C)(C)C)C1(C)CCCCC1)C2(C)C (stereo partly drawn) [compound 1223]
- Ki [1]: > 250 nM

Structure (SMILES): C=CCNC(=O)C(=O)C(CCC)NC(=O)[C@@H]1[C@@H]2[C@H](CN1C(=O)[C@@H](NC(=O)N[C@H]([C@H]1CCN(C)S1(=O)=O)C(C)(C)C)C1(C)CCCCC1)C2(C)C (stereo partly drawn) [compound 1224]
- Ki [1]: 75 to 250 nM

Structure (SMILES): C=CCNC(=O)C(=O)C(CCCC)NC(=O)[C@@H]1[C@@H]2[C@H](CN1C(=O)[C@@H](NC(=O)N[C@H]([C@H]1CCN(C)S1(=O)=O)C(C)(C)C)C1(C)CCCCC1)C2(C)C (stereo partly drawn) [compound 1225]
- Ki [1]: > 250 nM

Structure (SMILES): CCCC[C@H](NC(=O)[C@@H]1[C@@H]2[C@H](CN1C(=O)[C@@H](NC(=O)N[C@H]([C@H]1CCN(C)S1(=O)=O)C(C)(C)C)C(C)(C)C)C2(C)C)C(=O)C(=O)NC1CC1 [compound 1226]
- Ki [1]: > 250 nM

Structure (SMILES): CCC[C@H](NC(=O)[C@@H]1[C@@H]2[C@H](CN1C(=O)[C@@H](NC(=O)NC1(CS(=O)(=O)N(C)OC)CCCCC1)C(C)(C)C)C2(C)C)C(=O)C(=O)NC1CC1 [compound 1227]
- Ki [1]: < 75 nM

Structure (SMILES): CON(C)S(=O)(=O)CC1(NC(=O)N[C@H](C(=O)N2C[C@H]3[C@@H]([C@H]2C(=O)N[C@@H](CC2CC2)C(=O)C(=O)NC2CC2)C3(C)C)C(C)(C)C)CCCCC1 [compound 1228]
- Ki [1]: < 75 nM

Structure (SMILES): CCCNC(=O)C(=O)[C@H](CC1CC1)NC(=O)[C@@H]1[C@@H]2[C@H](CN1C(=O)[C@@H](NC(=O)NC1(CS(=O)(=O)N(C)OC)CCCCC1)C(C)(C)C)C2(C)C [compound 1229]
- Ki [1]: < 75 nM

Structure (SMILES): CCC[C@H](NC(=O)[C@@H]1[C@@H]2[C@H](CN1C(=O)[C@@H](NC(=O)NC1(CS(=O)(=O)N(C)OC)CCCCC1)C(C)(C)C)C2(C)C)C(=O)C(=O)NCC [compound 1230]
- Ki [1]: < 75 nM

Structure (SMILES): CCCC[C@H](NC(=O)[C@@H]1[C@@H]2[C@H](CN1C(=O)[C@@H](NC(=O)NC1(CS(=O)(=O)N(C)OC)CCCCC1)C1(C)CCCCC1)C2(C)C)C(=O)C(=O)NC1CC1 [compound 1231]
- Ki [1]: < 75 nM
